Assay results taken from publication PMC4705382.
No constants are given. Whether binding was seen depends on the method and setting. In cells and extracts the contact can be indirect. Some binding calls cover weakened binding; strength is not graded here. Where a sequence is shown, tags or fusion partners need not be part of it.

What was measured:
Assay in all cases: co-IP; rabbit anti-Myc beads (Sigma) on lysates of co-transfected COS7 cells; lysis buffer 50 mM HEPES pH 7.5, 0.5% Triton X-100, 150 mM NaCl, 1 mM EDTA; Western blot
[1] = molecular target: T1, ^mycMitofusin1 (UniProt Q811U4)
T1 sequence: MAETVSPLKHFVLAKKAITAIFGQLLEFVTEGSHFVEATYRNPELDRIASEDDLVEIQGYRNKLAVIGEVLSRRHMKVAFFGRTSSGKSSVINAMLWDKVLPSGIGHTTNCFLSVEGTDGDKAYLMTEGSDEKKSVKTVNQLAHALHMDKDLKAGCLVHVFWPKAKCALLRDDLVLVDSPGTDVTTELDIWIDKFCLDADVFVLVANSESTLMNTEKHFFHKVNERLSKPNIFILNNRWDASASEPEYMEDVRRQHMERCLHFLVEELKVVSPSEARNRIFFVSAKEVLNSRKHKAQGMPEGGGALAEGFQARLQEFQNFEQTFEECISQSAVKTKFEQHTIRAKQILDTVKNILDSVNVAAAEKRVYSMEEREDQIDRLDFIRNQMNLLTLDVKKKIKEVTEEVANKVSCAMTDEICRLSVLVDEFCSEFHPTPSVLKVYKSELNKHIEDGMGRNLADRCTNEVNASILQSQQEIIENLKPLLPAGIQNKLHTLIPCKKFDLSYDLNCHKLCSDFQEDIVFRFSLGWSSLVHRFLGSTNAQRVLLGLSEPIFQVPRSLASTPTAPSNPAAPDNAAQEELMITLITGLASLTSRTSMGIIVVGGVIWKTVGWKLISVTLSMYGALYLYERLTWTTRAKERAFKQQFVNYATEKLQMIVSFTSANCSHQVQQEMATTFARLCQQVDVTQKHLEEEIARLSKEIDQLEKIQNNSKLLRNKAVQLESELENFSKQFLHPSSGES

[2] = molecular target: T2, ^mycMitofusin2 (UniProt Q80U63)
T2 sequence: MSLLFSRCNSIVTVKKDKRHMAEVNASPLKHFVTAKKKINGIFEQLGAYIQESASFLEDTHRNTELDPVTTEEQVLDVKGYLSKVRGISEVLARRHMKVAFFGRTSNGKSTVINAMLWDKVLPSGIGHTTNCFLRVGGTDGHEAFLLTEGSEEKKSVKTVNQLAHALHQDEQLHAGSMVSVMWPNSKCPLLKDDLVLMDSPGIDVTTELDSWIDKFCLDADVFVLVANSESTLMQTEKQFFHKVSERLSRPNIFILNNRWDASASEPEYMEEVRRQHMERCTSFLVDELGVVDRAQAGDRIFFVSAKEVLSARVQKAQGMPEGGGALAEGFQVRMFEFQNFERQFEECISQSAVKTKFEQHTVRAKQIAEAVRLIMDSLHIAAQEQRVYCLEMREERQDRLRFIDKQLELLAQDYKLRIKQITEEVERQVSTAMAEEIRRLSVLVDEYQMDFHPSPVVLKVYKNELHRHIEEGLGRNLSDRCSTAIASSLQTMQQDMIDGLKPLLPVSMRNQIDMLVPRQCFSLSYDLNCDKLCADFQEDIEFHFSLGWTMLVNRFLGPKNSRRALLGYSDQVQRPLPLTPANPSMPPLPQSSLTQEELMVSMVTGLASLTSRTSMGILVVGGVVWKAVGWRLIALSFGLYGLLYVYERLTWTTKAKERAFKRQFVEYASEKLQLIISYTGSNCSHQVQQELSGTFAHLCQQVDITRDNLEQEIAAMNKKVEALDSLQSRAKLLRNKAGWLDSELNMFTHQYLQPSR

[3] = molecular target: T3, full-length ^mycTRAK2 (UniProt Q8R2H7)
T3 sequence: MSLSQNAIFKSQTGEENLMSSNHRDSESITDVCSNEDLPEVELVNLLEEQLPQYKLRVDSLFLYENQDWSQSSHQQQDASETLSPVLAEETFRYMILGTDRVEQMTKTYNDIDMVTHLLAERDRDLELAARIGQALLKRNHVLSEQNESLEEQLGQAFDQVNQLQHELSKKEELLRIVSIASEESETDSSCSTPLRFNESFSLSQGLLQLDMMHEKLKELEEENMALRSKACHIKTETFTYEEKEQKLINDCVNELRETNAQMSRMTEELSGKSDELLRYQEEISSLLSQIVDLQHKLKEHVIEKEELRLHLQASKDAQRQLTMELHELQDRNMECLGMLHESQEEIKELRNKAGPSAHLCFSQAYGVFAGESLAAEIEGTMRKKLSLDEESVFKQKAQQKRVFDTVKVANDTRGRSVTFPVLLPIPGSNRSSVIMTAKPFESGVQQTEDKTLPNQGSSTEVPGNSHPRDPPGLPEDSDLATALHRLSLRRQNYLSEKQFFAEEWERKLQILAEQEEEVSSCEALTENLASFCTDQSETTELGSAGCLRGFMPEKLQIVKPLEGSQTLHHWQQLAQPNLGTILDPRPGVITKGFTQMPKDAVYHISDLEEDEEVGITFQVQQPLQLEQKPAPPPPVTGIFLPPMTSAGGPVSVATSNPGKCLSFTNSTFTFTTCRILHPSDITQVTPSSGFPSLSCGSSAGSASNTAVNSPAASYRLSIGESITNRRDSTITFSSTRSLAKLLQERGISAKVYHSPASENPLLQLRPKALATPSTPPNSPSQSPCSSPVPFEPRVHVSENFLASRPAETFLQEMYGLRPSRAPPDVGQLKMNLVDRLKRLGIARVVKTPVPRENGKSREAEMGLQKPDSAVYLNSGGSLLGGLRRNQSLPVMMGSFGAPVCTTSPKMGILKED

Measured: binding

B1: Untagged human DISC1 (protein, UniProt Q9NRI5 1-854)
chain: MPGGGPQGAPAAAGGGGVSHRAGSRDCLPPAACFRRRRLARRPGYMRSSTGPGIGFLSPAVGTLFRFPGGVSGEESHHSESRARQCGLDSRGLLVRSPVSKSAAAPTVTSVRGTSAHFGIQLRGGTRLPDRLSWPCGPGSAGWQQEFAAMDSSETLDASWEAACSDGARRVRAAGSLPSAELSSNSCSPGCGPEVPPTPPGSHSAFTSSFSFIRLSLGSAGERGEAEGCPPSREAESHCQSPQEMGAKAASLDGPHEDPRCLSRPFSLLATRVSADLAQAARNSSRPERDMHSLPDMDPGSSSSLDPSLAGCGGDGSSGSGDAHSWDTLLRKWEPVLRDCLLRNRRQMEVISLRLKLQKLQEDAVENDDYDKAETLQQRLEDLEQEKISLHFQLPSRQPALSSFLGHLAAQVQAALRRGATQQASGDDTHTPLRMEPRLLEPTAQDSLHVSITRRDWLLQEKQQLQKEIEALQARMFVLEAKDQQLRREIEEQEQQLQWQGCDLTPLVGQLSLGQLQEVSKALQDTLASAGQIPFHAEPPETIRSLQERIKSLNLSLKEITTKVCMSEKFCSTLRKKVNDIETQLPALLEAKMHAISGNHFWTAKDLTEEIRSLTSEREGLEGLLSKLLVLSSRNVKKLGSVKEDYNRLRREVEHQETAYETSVKENTMKYMETLKNKLCSCKCPLLGKVWEADLEACRLLIQSLQLQEARGSLSVEDERQMDDLEGAAPPIPPRLHSEDKRKTPLKVLEEWKTHLIPSLHCAGGEQKEESYILSAELGEKCEDIGKKLLYLEDQLHTAIHSHDEDLIQSLRRELQMVKETLQAMILQLQPAKEAGEREAAASCMTAGVHEAQA
binds: all assays above
